Each structure is given as a SMILES string. This is one part of the list. Shown are side measurements of this screen, not its main read-out; they come without a call. The note in brackets gives the kind of curve behind each potency; many fits are weak.

The term AC50 denotes the concentration giving half of the maximal activity seen.
Tags describe the fitted curve by direction and shape.

The nature of this assay: qHTS drug screen for cell cycle checkpoint inhibitors in PARPi-resistant BRCA-mutant ovarian cancer cell lines. (AID 1963452). Particulars: PEO1/OlaR viability, CellTiter-Glo luminescence, 96 h; measured here: PEO1 parental viability. The procedure, abridged: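 PEO1, PEO4 and PEO1/OlaR ovarian cancer cells, 600 per well, exposed 96 h at 37C to a dilution series. Viability read by CellTiter-Glo luminescence, normalized to DMSO and empty wells; activity summarized as Z-AUC.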
Background: In qHTS, concentration-response curves come from the screen itself.
Turning to `COc1cccc([C@@H](C)NCCCc2ccccc2Cl)c1`, the concentration at half-maximal activity (AC50) was 27.5 µM [falling, single point]. `Cc1cn(-c2cc(NC(=O)c3ccc(C)c(Nc4nccc(-c5cccnc5)n4)c3)cc(C(F)(F)F)c2)cn1`: the AC50 was 15.5 µM [falling, single point].

`CN(C)C(=O)c1ccc(S(=O)(=O)c2ccc(NC(=O)[C@@](C)(O)C(F)(F)F)c(Cl)c2)cc1`: the AC50 is 2.75 µM [falling, full curve].

`CC(C)(O)c1cc2nc(-c3cnc(N)nc3)nc(N3CCOCC3)c2s1`: the AC50 was 1.23 µM [falling, full curve]. Consider `O=C(N[C@@H](c1ccccc1)[C@@H]1CCCCN1)c1cccc(C(F)(F)F)c1Cl`, for which the AC50 is 27.5 µM [falling, single point]. Take `O=C(O)c1ccc(Nc2ncc3c(n2)-c2ccc(Cl)cc2C(c2c(F)cccc2F)=NC3)cc1`: the half-maximal activity concentration (AC50) is 5.49 µM [falling, partial curve].

In the case of `CC(=O)Nc1nc(C)c(-c2ccc(Cl)c(S(=O)(=O)NCCO)c2)s1`, the AC50 was 12.3 µM [falling, partial curve]. Consider `CC(C)C[C@H](NC(=O)CNC(=O)c1cc(Cl)ccc1Cl)B1OC(=O)CC(CC(=O)O)(C(=O)O)O1` (some centres not stated), for which the AC50 is 0.0155 µM [falling, full curve]. In the case of `Nc1cc(C(F)(F)F)c(-c2cc(N3CCOCC3)nc(N3CCOCC3)n2)cn1`, the half-maximal activity concentration (AC50) is 0.977 µM [falling, full curve]. `CN1c2ccccc2C(=O)N2CCc3c([nH]c4ccccc34)C21` (configuration not stated): the AC50 was 1.23 µM [falling, full curve]. For `Cn1cc(CNCC2CCN(c3ncc(C(=O)NO)cn3)CC2)c2ccccc21`, the AC50 is 0.245 µM [falling, full curve]. Under `NC(=O)c1ccc(-c2nc(-c3ccc4c(c3)OCCO4)c(-c3ccccn3)[nH]2)cc1` stands 17.4 µM [falling, single point]; under `N#CC(c1ccc(Cl)cc1)c1c(Cl)cc(-n2ncc(=O)[nH]c2=O)cc1Cl` (configuration not stated), 9.77 µM [falling, partial curve]. Consider `COc1ccc(C=Cc2cc(OC)c(OC)c(OC)c2)cc1NC(=O)[C@H](N)CO`, for which the concentration at half-maximal activity (AC50) was 0.0549 µM [falling, full curve]. As to `O=C1c2ccccc2-[n+]2ccc3c([nH]c4ccccc43)c21`, the half-maximal activity concentration (AC50) is 0.692 µM [falling, full curve].

For the compound `Cc1ccc(C(=O)N(CCCN)[C@@H](c2oc3cc(Cl)ccc3c(=O)c2Cc2ccccc2)C(C)C)cc1`, the half-maximal activity concentration (AC50) is 0.871 µM [falling, partial curve, poor fit]. Under `COc1cc(F)c(F)c(Nc2ccc(I)cc2F)c1NS(=O)(=O)C1(C[C@H](O)CO)CC1` stands 0.871 µM [falling, full curve]; under `CCc1cc(Nc2nccc(-c3c(-c4ccc(OC)c(C(=O)Nc5c(F)cccc5F)c4)nc4ccccn34)n2)c(OC)cc1N1CCC(N2CCN(S(C)(=O)=O)CC2)CC1`, 7.76 µM [falling, partial curve]. For the compound `Cc1cc(Nc2ncc3c(n2)N(C)C(=O)N(c2cc(NC(=O)c4cccc(C(F)(F)F)c4)ccc2C)C3)n(C)n1`, the AC50 was 0.195 µM [falling, full curve]. On to `COc1cc(Oc2ccnc3cc(OC)c(OC)cc23)ccc1NC(=O)NC(C)c1nccs1` (configuration not stated), for which the AC50 is 12.3 µM [falling, single point]. As to `COc1c(OCCCN2CCOCC2)ccc2c3n(c(=NC(=O)c4cnc(N)nc4)nc12)CCN3`, the half-maximal activity concentration (AC50) was 0.178 µM [falling, full curve]. Consider `CC(C)c1cnn2c(NCc3ccccc3)cc(N[C@@H](CO)[C@H](O)CO)nc12`, for which the concentration at half-maximal activity (AC50) was 0.11 µM [falling, full curve]. `NS(=O)(=O)c1ccc(NC2=CC(=O)c3ccccc3C2=O)cc1`: the AC50 was 3.89 µM [falling, partial curve, poor fit].

Regarding `CCC[C@H](Nc1nc(-c2ccc(NC(=O)NCC)c(OC)c2)ncc1C)c1cccnc1`, the AC50 was 0.0098 µM [falling, full curve].

`Oc1cccc(-c2nc(N3CCOCC3)c3oc4ncccc4c3n2)c1`: the half-maximal activity concentration (AC50) was 0.11 µM [falling, full curve, poor fit]. Turning to `c1ccc2c(-c3cnn4cc(-c5ccc(N6CCNCC6)cc5)cnc34)ccnc2c1`, the AC50 is 3.09 µM [falling, full curve]. As for `Cc1ccc(C2=Nc3ccc(Cl)cc3OC2)cc1`, the figure is 11 µM [falling, partial curve].

(Values after PubChem BioAssay (NCATS).)
